Source: US20210238308A1 (Chugai, published 2021)

T1: PRYSPRY domain of human TRIM21 with N-terminal 6xHis tag (human)
T1 construct: Expressed in E. coli; also called hTRIM21; human TRIM21.PRYSPRY
T1 chain: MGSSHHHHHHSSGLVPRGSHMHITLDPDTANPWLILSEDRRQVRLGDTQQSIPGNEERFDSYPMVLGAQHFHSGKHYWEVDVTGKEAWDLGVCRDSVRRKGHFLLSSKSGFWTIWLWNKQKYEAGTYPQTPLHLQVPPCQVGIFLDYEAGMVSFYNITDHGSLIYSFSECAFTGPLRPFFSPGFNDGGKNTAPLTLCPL

T2: PRYSPRY domain of mouse TRIM21 with N-terminal 6xHis tag (mouse)
T2 construct: Expressed in E. coli; also called mTRIM21; mouse TRIM21.PRYSPRY
T2 chain: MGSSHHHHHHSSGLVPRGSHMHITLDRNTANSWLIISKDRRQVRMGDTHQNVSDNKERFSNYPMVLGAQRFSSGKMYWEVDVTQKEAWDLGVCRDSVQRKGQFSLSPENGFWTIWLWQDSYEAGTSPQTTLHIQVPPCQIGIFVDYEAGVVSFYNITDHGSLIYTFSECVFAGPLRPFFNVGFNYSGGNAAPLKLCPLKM

B1: MRAH-G1d/MRAL-KT0 L309I (antibody, human IgG1, kappa)
heavy: QVQLQESGPGLVRPSQTLSLTCTVSGYSITSDHAWSWVRQPPGRGLEWIGYISYSGITTYNPSLKSRVTMLRDTSKNQFSLRLSSVTAADTAVYYCARSLARTTAMDYWGQGSLVTVSS[human IgG1 constant region with L309I (EU numbers) omitted here]
light: DIQMTQSPSSLSASVGDRVTITCRASQDISSYLNWYQQKPGKAPKLLIYYTSRLHSGVPSRFSGSGSGTDFTFTISSLQPEDIATYYCQQGNTLPYTFGQGTKVEIKRTVAAPSVFIFPPSDEQLKSGTASVVCLLNNFYPREAKVQWKVDNALQSGNSQESVTEQDSKDSTYSLSSTLTLSKADYEKHKVYACEVTHQGLSSPVTKSFNRGEC
notes: copies: 2 + 2
B2: MRAH-G1d/MRAL-KT0 L309K (antibody, human IgG1, kappa)
heavy: QVQLQESGPGLVRPSQTLSLTCTVSGYSITSDHAWSWVRQPPGRGLEWIGYISYSGITTYNPSLKSRVTMLRDTSKNQFSLRLSSVTAADTAVYYCARSLARTTAMDYWGQGSLVTVSS[human IgG1 constant region with L309K (EU numbers) omitted here]
light: B1 light
notes: copies: 2 + 2
B3: MRAH-G1d/MRAL-KT0 L309M (antibody, human IgG1, kappa)
heavy: QVQLQESGPGLVRPSQTLSLTCTVSGYSITSDHAWSWVRQPPGRGLEWIGYISYSGITTYNPSLKSRVTMLRDTSKNQFSLRLSSVTAADTAVYYCARSLARTTAMDYWGQGSLVTVSS[human IgG1 constant region with L309M (EU numbers) omitted here]
light: B1 light
notes: copies: 2 + 2
B4: MRAH-G1d/MRAL-KT0 L309N (antibody, human IgG1, kappa)
heavy: QVQLQESGPGLVRPSQTLSLTCTVSGYSITSDHAWSWVRQPPGRGLEWIGYISYSGITTYNPSLKSRVTMLRDTSKNQFSLRLSSVTAADTAVYYCARSLARTTAMDYWGQGSLVTVSS[human IgG1 constant region with L309N (EU numbers) omitted here]
light: B1 light
notes: copies: 2 + 2
B5: MRAH-G1d/MRAL-KT0 L309R (antibody, human IgG1, kappa)
heavy: QVQLQESGPGLVRPSQTLSLTCTVSGYSITSDHAWSWVRQPPGRGLEWIGYISYSGITTYNPSLKSRVTMLRDTSKNQFSLRLSSVTAADTAVYYCARSLARTTAMDYWGQGSLVTVSS[human IgG1 constant region with L309R (EU numbers) omitted here]
light: B1 light
notes: copies: 2 + 2
B6: MRAH-G1d/MRAL-KT0 L309T (antibody, human IgG1, kappa)
heavy: QVQLQESGPGLVRPSQTLSLTCTVSGYSITSDHAWSWVRQPPGRGLEWIGYISYSGITTYNPSLKSRVTMLRDTSKNQFSLRLSSVTAADTAVYYCARSLARTTAMDYWGQGSLVTVSS[human IgG1 constant region with L309T (EU numbers) omitted here]
light: B1 light
notes: copies: 2 + 2
B7: MRAH-G1d/MRAL-KT0 L309W (antibody, human IgG1, kappa)
heavy: QVQLQESGPGLVRPSQTLSLTCTVSGYSITSDHAWSWVRQPPGRGLEWIGYISYSGITTYNPSLKSRVTMLRDTSKNQFSLRLSSVTAADTAVYYCARSLARTTAMDYWGQGSLVTVSS[human IgG1 constant region with L309W (EU numbers) omitted here]
light: B1 light
notes: copies: 2 + 2
B8: MRAH-G1d/MRAL-KT0 L309Y (antibody, human IgG1, kappa)
heavy: QVQLQESGPGLVRPSQTLSLTCTVSGYSITSDHAWSWVRQPPGRGLEWIGYISYSGITTYNPSLKSRVTMLRDTSKNQFSLRLSSVTAADTAVYYCARSLARTTAMDYWGQGSLVTVSS[human IgG1 constant region with L309Y (EU numbers) omitted here]
light: B1 light
notes: copies: 2 + 2
B9: MRAH-G1d/MRAL-KT0 L314A (antibody, human IgG1, kappa)
heavy: QVQLQESGPGLVRPSQTLSLTCTVSGYSITSDHAWSWVRQPPGRGLEWIGYISYSGITTYNPSLKSRVTMLRDTSKNQFSLRLSSVTAADTAVYYCARSLARTTAMDYWGQGSLVTVSS[human IgG1 constant region with L314A (EU numbers) omitted here]
light: B1 light
notes: copies: 2 + 2
B10: MRAH-G1d/MRAL-KT0 L314D (antibody, human IgG1, kappa)
heavy: QVQLQESGPGLVRPSQTLSLTCTVSGYSITSDHAWSWVRQPPGRGLEWIGYISYSGITTYNPSLKSRVTMLRDTSKNQFSLRLSSVTAADTAVYYCARSLARTTAMDYWGQGSLVTVSS[human IgG1 constant region with L314D (EU numbers) omitted here]
light: B1 light
notes: copies: 2 + 2
B11: MRAH-G1d/MRAL-KT0 L314F (antibody, human IgG1, kappa)
heavy: QVQLQESGPGLVRPSQTLSLTCTVSGYSITSDHAWSWVRQPPGRGLEWIGYISYSGITTYNPSLKSRVTMLRDTSKNQFSLRLSSVTAADTAVYYCARSLARTTAMDYWGQGSLVTVSS[human IgG1 constant region with L314F (EU numbers) omitted here]
light: B1 light
notes: copies: 2 + 2
B12: MRAH-G1d/MRAL-KT0 L314G (antibody, human IgG1, kappa)
heavy: QVQLQESGPGLVRPSQTLSLTCTVSGYSITSDHAWSWVRQPPGRGLEWIGYISYSGITTYNPSLKSRVTMLRDTSKNQFSLRLSSVTAADTAVYYCARSLARTTAMDYWGQGSLVTVSS[human IgG1 constant region with L314G (EU numbers) omitted here]
light: B1 light
notes: copies: 2 + 2
B13: MRAH-G1d/MRAL-KT0 L314H (antibody, human IgG1, kappa)
heavy: QVQLQESGPGLVRPSQTLSLTCTVSGYSITSDHAWSWVRQPPGRGLEWIGYISYSGITTYNPSLKSRVTMLRDTSKNQFSLRLSSVTAADTAVYYCARSLARTTAMDYWGQGSLVTVSS[human IgG1 constant region with L314H (EU numbers) omitted here]
light: B1 light
notes: copies: 2 + 2

Target: T1, PRYSPRY domain of human TRIM21 with …
Assay: SPR, Protein L capture
For B1, the “hTRIM21 binding level ratio (variant/control antibody)” value was 0.849. For B2, the “hTRIM21 binding level ratio (variant/control antibody)” value was 0.988. For B3, the “hTRIM21 binding level ratio (variant/control antibody)” value was 0.831. With B4 the “hTRIM21 binding level ratio (variant/control antibody)” value was 0.963. With B5 the “hTRIM21 binding level ratio (variant/control antibody)” value was 0.924. B6 was tested, and the “hTRIM21 binding level ratio (variant/control antibody)” value was 1.18. B7 was tested, and the “hTRIM21 binding level ratio (variant/control antibody)” value was 0.907. In the case of B8, the “hTRIM21 binding level ratio (variant/control antibody)” value is reported as 0.942. With B9 the “hTRIM21 binding level ratio (variant/control antibody)” value was 0.717. For B10, the “hTRIM21 binding level ratio (variant/control antibody)” value was 0.724. B11: no binding (tested: 100 nM). B12: no binding (tested: 100 nM). B13: no binding (tested: 100 nM).

Target: T2, PRYSPRY domain of mouse TRIM21 with …
Assay: SPR, Protein L capture
With B1 the “mTRIM21 binding level ratio (variant/control antibody)” value was 1.71. B2 was tested, and the “mTRIM21 binding level ratio (variant/control antibody)” value was 2.44. B3 was tested, and the “mTRIM21 binding level ratio (variant/control antibody)” value was 2.22. With B4 the “mTRIM21 binding level ratio (variant/control antibody)” value was 2.38. For B5, the “mTRIM21 binding level ratio (variant/control antibody)” value was 2.51. With B6 the “mTRIM21 binding level ratio (variant/control antibody)” value was 2.83. With B7 the “mTRIM21 binding level ratio (variant/control antibody)” value was 2.19. With B8 the “mTRIM21 binding level ratio (variant/control antibody)” value was 2.27. For B9, the “mTRIM21 binding level ratio (variant/control antibody)” value was 2.31. In the case of B10, the “mTRIM21 binding level ratio (variant/control antibody)” value is reported as 0.727. B11: no binding (tested: 100 nM). B12: no binding (tested: 100 nM). B13: no binding (tested: 100 nM).

The binders below were run against T3, human FcRn (human, UniProt P55899 fragment; P61769 fragment, limits assumed) (assay: SPR, Protein L capture).
T3 construct: also called hFcRn
T3 sequence (P55899 24-290 limits assumed, form in doubt, chain 1 of 2): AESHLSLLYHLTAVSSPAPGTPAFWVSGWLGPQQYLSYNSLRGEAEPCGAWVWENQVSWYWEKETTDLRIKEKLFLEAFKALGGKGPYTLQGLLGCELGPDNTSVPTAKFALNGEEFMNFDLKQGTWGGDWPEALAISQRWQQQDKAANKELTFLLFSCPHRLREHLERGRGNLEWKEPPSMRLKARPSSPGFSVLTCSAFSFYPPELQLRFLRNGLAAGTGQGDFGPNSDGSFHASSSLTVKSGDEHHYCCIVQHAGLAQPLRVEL
T3 sequence (P61769 21-119 limits assumed, form in doubt, chain 2 of 2, further chain): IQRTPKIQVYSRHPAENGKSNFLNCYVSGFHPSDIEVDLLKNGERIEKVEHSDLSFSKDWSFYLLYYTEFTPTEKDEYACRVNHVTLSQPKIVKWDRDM
B1 was tested, and the “hFcRn binding level ratio (variant/control antibody)” value was 0.87. In the case of B2, the “hFcRn binding level ratio (variant/control antibody)” value is reported as 0.16. With B3 the “hFcRn binding level ratio (variant/control antibody)” value was 0.88. With B4 the “hFcRn binding level ratio (variant/control antibody)” value was 0.32. With B5 the “hFcRn binding level ratio (variant/control antibody)” value was 0.26. In the case of B6, the “hFcRn binding level ratio (variant/control antibody)” value is reported as 0.73. B7 was tested, and the “hFcRn binding level ratio (variant/control antibody)” value was 1.05. In the case of B8, the “hFcRn binding level ratio (variant/control antibody)” value is reported as 0.12. With B9 the “hFcRn binding level ratio (variant/control antibody)” value was 0.01. In the case of B10, the “hFcRn binding level ratio (variant/control antibody)” value is reported as 0.01. For B11, the “hFcRn binding level ratio (variant/control antibody)” value was 0.27. For B12, the “hFcRn binding level ratio (variant/control antibody)” value was 0.38. In the case of B13, the “hFcRn binding level ratio (variant/control antibody)” value is reported as 0.26.
